Test results taken from the supplement of paper PMC10126150.
Sequences with one replicate were seen in a single cluster, so their values are uncertain.

Tested on: ATP
Assay: switch fluorescence ratio, 500 uM ATP over buffer (Cy3 cluster intensity, sum of 5 cycles each) (fold (ratio)); higher = stronger signal-on switching upon ATP binding; sequences stand for … in TCGTCGGCAGCGTCAGATGTGTATAAGAGACAGTTTTTTTTTTTTTTTTTTTTTTTTT…TC
Conditions: aptamer strand: ATP DNA aptamer (quencher-CACCTGGGGGAGTATTGCGGAGGAAGG + anchor), 100 nM annealed; ATP concentration: 500 uM; one replicate
In short: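 Clusters carrying Cy3-labelled switching strands on a modified Illumina MiSeq flow-cell were annealed to 100 nM quencher-labelled ATP aptamer and imaged in selection buffer. They were imaged again after 15 min with 500 uM ATP at 22 °C, over five buffer/ATP cycles with NaOH stripping and re-annealing in between. For each cluster, the fluorescence ratio is the summed Cy3 intensity of the target cycles divided by that of the buffer cycles, averaged per switch-domain sequence. Clusters outside 100-1000 RFU were left out.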
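Also: ATP exposure 15 min at 22 °C before imaging.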

Q: Which switch fluorescence ratio does the source give for GGATTATCGC here?
A: 0.985

Q: How did the switch fluorescence ratio turn out when GGATTCAGGA was run?
A: 1.09

Q: How did the switch fluorescence ratio turn out when GGATTCGTTA was run?
A: 1.02

Q: For GGATTCTTCA, which switch fluorescence ratio is on record?
A: 1.01

Q: For GGATTGAACA, which switch fluorescence ratio is on record?
A: 1.03

Q: With GGATTGATGA as the sequence, how does the switch fluorescence ratio read?
A: 0.935

Q: How did the switch fluorescence ratio turn out when GGATTGTCGA was run?
A: 0.992

Q: How did the switch fluorescence ratio turn out when GGATTTTGG was run?
A: 0.965

Q: For GGATTTTTCG, which switch fluorescence ratio is on record?
A: 1

Q: How did the switch fluorescence ratio turn out when GGCAAAAAAC was run?
A: 1.03

Q: GGCAAAGCCG was tested. Which switch fluorescence ratio did it give?
A: 1.04

Q: How did the switch fluorescence ratio turn out when GGCAAATTGG was run?
A: 1

Q: Which switch fluorescence ratio does the source give for GGCAACCACG here?
A: 1.12

Q: GGCAACTGTT was tested. Which switch fluorescence ratio did it give?
A: 1.09

Q: For GGCAATATAT, which switch fluorescence ratio is on record?
A: 1.06

Q: Which switch fluorescence ratio does the source give for GGCAATCAAT here?
A: 1.02

Q: For GGCAATTGTG, which switch fluorescence ratio is on record?
A: 0.972

Q: How did the switch fluorescence ratio turn out when GGCACAAGT was run?
A: 0.996

Q: Which switch fluorescence ratio does the source give for GGCACGGGCT here?
A: 0.99

Q: For GGCACGTGGA, which switch fluorescence ratio is on record?
A: 1.02

Q: Which switch fluorescence ratio does the source give for GGCACTCGTG here?
A: 0.994

Q: How did the switch fluorescence ratio turn out when GGCACTGGTG was run?
A: 1.14

Q: How did the switch fluorescence ratio turn out when GGCACTTCGA was run?
A: 1.04

Q: With GGCAGAATCA as the sequence, how does the switch fluorescence ratio read?
A: 0.991

Q: GGCAGACTGC was tested. Which switch fluorescence ratio did it give?
A: 0.97

Q: With GGCAGATCGC as the sequence, how does the switch fluorescence ratio read?
A: 0.963

Q: For GGCAGCCCAT, which switch fluorescence ratio is on record?
A: 1.01

Q: Which switch fluorescence ratio does the source give for GGCAGCTGCA here?
A: 0.964

Q: GGCAGGAAAT was tested. Which switch fluorescence ratio did it give?
A: 0.99

Q: How did the switch fluorescence ratio turn out when GGCAGGATCT was run?
A: 0.979

Q: GGCAGGATTG was tested. Which switch fluorescence ratio did it give?
A: 0.992

Q: GGCAGGCATA was tested. Which switch fluorescence ratio did it give?
A: 1.01

Q: For GGCAGTACAT, which switch fluorescence ratio is on record?
A: 1.05

Q: GGCAGTGGGT was tested. Which switch fluorescence ratio did it give?
A: 1.02

Q: GGCAGTTGAG was tested. Which switch fluorescence ratio did it give?
A: 1.04

Q: For GGCATAGGAT, which switch fluorescence ratio is on record?
A: 1.03

Q: How did the switch fluorescence ratio turn out when GGCATATTTA was run?
A: 1

Q: For GGCATCGTCT, which switch fluorescence ratio is on record?
A: 0.972

Q: GGCATCTAAA was tested. Which switch fluorescence ratio did it give?
A: 0.988

Q: How did the switch fluorescence ratio turn out when GGCATCTTCG was run?
A: 0.988

Q: With GGCATGATGC as the sequence, how does the switch fluorescence ratio read?
A: 0.974

Q: Which switch fluorescence ratio does the source give for GGCATT here?
A: 0.938

Q: With GGCATTGTGC as the sequence, how does the switch fluorescence ratio read?
A: 0.985

Q: How did the switch fluorescence ratio turn out when GGCCAAAACG was run?
A: 1.01

Q: Which switch fluorescence ratio does the source give for GGCCAAAATG here?
A: 1.04

Q: With GGCCAACGGG as the sequence, how does the switch fluorescence ratio read?
A: 1.04

Q: With GGCCAAGAGC as the sequence, how does the switch fluorescence ratio read?
A: 0.962

Q: GGCCAAGCGT was tested. Which switch fluorescence ratio did it give?
A: 0.972

Q: How did the switch fluorescence ratio turn out when GGCCAGACTC was run?
A: 1.08

Q: For GGCCAGGG, which switch fluorescence ratio is on record?
A: 1.07

Q: For GGCCATCCAA, which switch fluorescence ratio is on record?
A: 0.976

Q: How did the switch fluorescence ratio turn out when GGCCATGATT was run?
A: 1.01

Q: With GGCCCAGTAA as the sequence, how does the switch fluorescence ratio read?
A: 0.999

Q: GGCCCCCTAG was tested. Which switch fluorescence ratio did it give?
A: 1.07

Q: Which switch fluorescence ratio does the source give for GGCCCTGCAC here?
A: 0.998

Q: For GGCCCTTTAG, which switch fluorescence ratio is on record?
A: 1.02

Q: How did the switch fluorescence ratio turn out when GGCCGAGTGG was run?
A: 1.04

Q: How did the switch fluorescence ratio turn out when GGCCGCGCGA was run?
A: 1.05

Q: For GGCCGGACGA, which switch fluorescence ratio is on record?
A: 1.03

Q: For GGCCGGGCGA, which switch fluorescence ratio is on record?
A: 0.966

Q: With GGCCGTAGGT as the sequence, how does the switch fluorescence ratio read?
A: 1.04

Q: How did the switch fluorescence ratio turn out when GGCCGTCGTG was run?
A: 0.977

Q: Which switch fluorescence ratio does the source give for GGCCGTCTGG here?
A: 1.01

Q: For GGCCGTTCAA, which switch fluorescence ratio is on record?
A: 1.02

Q: For GGCCTAACCG, which switch fluorescence ratio is on record?
A: 1.09

Q: GGCCTAAGAA was tested. Which switch fluorescence ratio did it give?
A: 0.963

Q: Which switch fluorescence ratio does the source give for GGCCTACCTG here?
A: 1.06

Q: For GGCCTAGCAC, which switch fluorescence ratio is on record?
A: 1.02

Q: GGCCTAGCTG was tested. Which switch fluorescence ratio did it give?
A: 1

Q: With GGCCTCTGGC as the sequence, how does the switch fluorescence ratio read?
A: 1.09

Q: Which switch fluorescence ratio does the source give for GGCCTCTTTG here?
A: 1.11

Q: With GGCCTGGTGG as the sequence, how does the switch fluorescence ratio read?
A: 0.997

Q: GGCCTTGAAC was tested. Which switch fluorescence ratio did it give?
A: 1.01

Q: GGCCTTGGTC was tested. Which switch fluorescence ratio did it give?
A: 0.955

Q: With GGCCTTTGAC as the sequence, how does the switch fluorescence ratio read?
A: 0.98

Q: With GGCGAAAGGT as the sequence, how does the switch fluorescence ratio read?
A: 0.983

Q: For GGCGAATCCG, which switch fluorescence ratio is on record?
A: 1.01

Q: How did the switch fluorescence ratio turn out when GGCGACCGGA was run?
A: 1.01

Q: With GGCGACTTTT as the sequence, how does the switch fluorescence ratio read?
A: 1.06

Q: How did the switch fluorescence ratio turn out when GGCGAGGGGA was run?
A: 1.04

Q: Which switch fluorescence ratio does the source give for GGCGATCCGA here?
A: 0.977

Q: For GGCGCCGACA, which switch fluorescence ratio is on record?
A: 0.983

Q: GGCGCCTAAT was tested. Which switch fluorescence ratio did it give?
A: 1.01

Q: With GGCGCCTGTA as the sequence, how does the switch fluorescence ratio read?
A: 1.05

Q: GGCGCGGACG was tested. Which switch fluorescence ratio did it give?
A: 1.01
